Measurements as given in the supplement of paper PMC3334620.
Whole data set: some 33,000 sequences, median “E-score (-0.5 to 0.5)” near -0.012, cut for the highest 2% near 0.27. The list shows a part of the results.

What follows are sequences tested against T1, Vhr1 (UniProt P40522) (assay: PBM E-score (8-mer binding enrichment) (E-score (-0.5 to 0.5)); higher = stronger / more preferred TF binding; most listed sequences are background and not binding sites). Conditions: protein concentration: 200 nM; construct: GST-full length.
T1 sequence: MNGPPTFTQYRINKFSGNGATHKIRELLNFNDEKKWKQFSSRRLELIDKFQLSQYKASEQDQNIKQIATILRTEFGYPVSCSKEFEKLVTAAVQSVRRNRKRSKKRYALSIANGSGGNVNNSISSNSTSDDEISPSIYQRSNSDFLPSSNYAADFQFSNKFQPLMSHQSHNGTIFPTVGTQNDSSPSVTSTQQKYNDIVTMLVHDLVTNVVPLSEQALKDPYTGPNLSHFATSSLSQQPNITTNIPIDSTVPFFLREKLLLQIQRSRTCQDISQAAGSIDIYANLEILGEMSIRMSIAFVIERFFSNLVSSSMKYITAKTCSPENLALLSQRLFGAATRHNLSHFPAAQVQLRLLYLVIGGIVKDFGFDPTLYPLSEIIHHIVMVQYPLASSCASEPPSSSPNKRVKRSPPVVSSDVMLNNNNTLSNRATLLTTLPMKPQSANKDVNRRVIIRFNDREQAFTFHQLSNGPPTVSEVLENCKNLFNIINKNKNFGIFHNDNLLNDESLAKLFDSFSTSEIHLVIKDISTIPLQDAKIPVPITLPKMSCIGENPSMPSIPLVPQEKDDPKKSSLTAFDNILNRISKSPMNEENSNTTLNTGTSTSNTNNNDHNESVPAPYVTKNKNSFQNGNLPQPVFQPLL
How it was run: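 The E-score, a modified Wilcoxon-Mann-Whitney statistic, was computed by the Universal PBM Analysis Suite for every ungapped eight-base word pooled with its reverse complement. Scans behind it were normalised with masliner after bound GST-tagged yeast transcription factors were detected with fluorescent anti-GST. The proteins, at about 100-200 nM, had been applied to universal all-10-mer Agilent arrays made double-stranded by primer extension.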

Point of comparison: ACCTTTAA, “PBM E-score” value -0.23. Against it:
- AATTCCAT — higher, -0.052
- ATTGTCCC — higher, -0.125
- GATAACCC — higher, -0.107
- CACCATAG — higher, -0.00069
- CATAACAC — higher, 0.185
- CCAACCTA — higher, -0.0504
- GGCCAAAA — lower, -0.241
- AGATGCGG — higher, -0.00129
- ACCGTAGA — higher, -0.076
- AACCACCG — higher, -0.0412
- ACGCGGAA — higher, 0.0134
- CTATCGAA — higher, 0.0824
- GTACTTCA — higher, 0.114
- AGCACTCA — higher, 0.123
- GACATTTA — higher, -0.101
- CATCATCA — higher, -0.0217
- AAGGGCGG — higher, -0.0187
- CGTACACG — higher, 0.0951
- CATGCAAA — higher, -0.0671
- CATCTCAG — higher, 0.177
- ACGACACC — higher, 0.123
- CAGCTGCG — higher, 0.0036
- AAATGAGG — higher, -0.211
- ATGTCGAC — higher, 0.0597
- GCCTCGCC — higher, 0.0674
- GTCATGAA — higher, 0.257
- AATGTGAT — higher, -0.0554
- CTCGTCCA — higher, 0.121
- AAGATCGA — higher, -0.162
- AGGGTGTA — higher, -0.00827
- AGGCTACT — higher, 0.00152
- GTCGACCA — higher, 0.106
- GATTCACC — higher, 0.243
- AGCGCACC — higher, -0.0726
- ACGGTCGC — higher, -0.152
- TCGACGCA — higher, 0.109
- CATTAAGC — higher, -0.0626
- CTGTCATC — higher, -0.12
- GTATATAC — higher, 0.0568
- AAACTCCG — higher, -0.0785
- AGTTAAAA — higher, -0.22
- GCCCCTAC — higher, -0.0944
- GGATAGCC — higher, 0.0616
- ACAAGGTA — higher, -0.116
- CCGAACAC — higher, 0.00261
- GTAGTCAA — higher, 0.262
- CGGGAACC — higher, 0.018
- AAGTGTTC — higher, -0.0599
- AAGTATGA — higher, 0.124
- TCGTAAGA — higher, -0.0781
- GTGTAACA — higher, 0.149
- ATTGCTAC — higher, -0.105
- AAGAGAAT — higher, -0.0563
- CTCTGAGC — higher, 0.0817
- AAAGGACC — higher, -0.166
- AACACTCG — higher, 0.00575
- GGTCCACA — higher, -0.0137
- CTGGCCCC — higher, -0.0906
- CTACTGGC — higher, -0.0587
- CTCCAGCA — higher, -0.00643
- ATGACCAA — higher, -0.0198
- AATAGCGC — higher, 0.114
- ACTAAGAA — higher, 0.0801
- AGGAACAA — higher, -0.108
- TACATTGA — higher, 0.0911
- TATGAGGA — higher, -0.0561
- AGTTCGGC — higher, -0.15
- ACGTTACG — higher, -0.054
- TATCCCAA — higher, -0.163
- ACGACACG — higher, 0.093
- GTAACCCA — higher, 0.231
- AGACTTAG — higher, -0.0914
- CATATCAC — higher, 0.0186
- ATTGTAGC — higher, -0.0849
- AGGTATCA — higher, -0.00362
- ATCTATCC — higher, 0.0763
- CCCACTCA — higher, 0.0948
- CCTAGTTA — higher, -0.0525
- CATCGTAG — higher, -0.0503
- ACGCTTAC — higher, -0.205
- ACGAGTCC — higher, 0.0781
- GGCCATAC — higher, 0.0276
- GGACCAAA — higher, -0.0274
- CACTAGCG — higher, -0.152
- CCAGGGTA — higher, 0.071
- GCGGGCTA — higher, -0.119
- GATTACTA — higher, 0.121
- AAACCCCG — higher, 0.171
- ACGAGCAT — higher, 0.0404
- CCGTACTA — higher, 0.177
- CAAGGTCC — higher, -0.0834
- AGCTTTCG — lower, -0.388
- GCACAAGA — higher, -0.0127
- TCCCGAGA — higher, -0.0263
- GTCACCAC — higher, 0.0904
- ACCAACGA — higher, 0.0931
- CTTTGGAC — higher, 0.0623
- CAAGCCTA — higher, -0.191
- ATTCTCGG — higher, -0.094
- GCCAGTGA — higher, -0.122
- CGCTGAAC — higher, -0.167
- AACGACGC — higher, -0.0318
- ACTCTCCA — higher, -0.00442
- ATCCCTTC — higher, -0.0156
- CGCCCAAA — higher, 0.035
- CAACCCGC — higher, 0.272
- CTTGAACC — higher, 0.0593
- AATATATT — higher, 0.284
- TCACAGAA — higher, 0.0529
- GACAGCCA — higher, 0.0276
- CCATAAAA — higher, -0.0394
- ACAATATG — higher, 0.325
- ACATCACC — higher, -0.0635
- AACGCCTG — higher, -0.0483
- CACTTACG — higher, 0.0636
- CGTGTAGC — higher, 0.0546
- CCGAACAG — higher, -0.0142
- ACTCTAAC — higher, 0.09
- GATGAATC — higher, 0.249
- ACAAAATA — higher, -0.0636
- AATTCTTG — higher, -0.216
- AGTCGCAC — higher, 0.296
- AGTGAGTG — higher, 0.00138
- CGATTCCC — higher, 0.142
- AGCCGCCC — higher, 0.0712
- CTATACTC — higher, 0.164
- CTCGCGGC — higher, 0.134
- AGAAGGCT — lower, -0.344
- GGGAGTGA — higher, 0.0808
- CCTGACCC — higher, 0.0869
- TACGGTAA — higher, -0.185
- CAGCGCTA — higher, 0.00815
- CTAACCAA — higher, 0.178
- CAGGGTAC — higher, -0.118
- CAGCCGGC — higher, -0.00649
- AACCCGAT — higher, 0.0738
- CCGTAGTA — higher, -0.0102
- GGCTTCAA — lower, -0.235
- ATACTGAT — higher, 0.155
- GCTGAACA — higher, -0.00858
- CCTCGAAG — higher, -0.0314
- ATAAAGTC — higher, 0.107
- AGGTTATA — higher, -0.0713
- CCTGAAAG — higher, -0.141
- AGGCAACG — higher, -0.113
- GATTGGTA — higher, 0.178
- CTTTGTGA — higher, 0.00044
- CCTTCTCA — higher, -0.0633
- AGCTTTGA — higher, -0.0613
- CGGAAGTC — higher, 0.0873
- ACCCGGCC — lower, -0.241
- AAAGAGTA — higher, -0.174
- GCGCGCGC — higher, 0.379
- GGCCCTAC — higher, -0.191
- GACCCCTC — higher, -0.0392
- GACCACAC — higher, 0.0574
- AGGTGTCC — higher, 0.0962
- AAGAAAGT — higher, -0.0406
- GGTCATCA — higher, 0.136
- ACTCACGC — higher, 0.366
- CATCGTAA — higher, 0.184
- ACTCTATA — higher, 0.0821
- GTGCAATA — higher, -0.0141
- AAATGCGC — higher, 0.168
- GACCCATA — higher, 0.251
- GATAATGA — higher, 0.0842
- AACCGTTA — higher, -0.0869
- AACCGCCG — higher, 0.119
- AACAGGAC — higher, 0.084
- AGACAATG — higher, -0.0688
- GAGCTACA — higher, -0.168
